Laboratory results taken from PubChem BioAssay AID2147 (National Center for Advancing Translational Sciences (NCATS), 2009).
Out of some 230,000 compounds screened, about 3,600 (1.6%) were called active. Inconclusive results, whose numbers are uncertain, are shown with a selection of clear calls. Calls follow the shape of the dose curve; as a rule, active = well fitted inhibition curve with a large enough effect (not every such curve was filed as active); inconclusive = small, poorly fitted or top-dose-only effect, or another doubt; inactive = no such curve, though single readings can be large or run the other way. Potencies of inconclusive entries are doubtful fits and often do not repeat.

Each molecule was assayed against Lysine-specific demethylase 4E (Homo sapiens) (UniProt B2RXH2) (assay: qHTS Assay for Inhibitors of Human Jumonji Domain Containing 2E (JMJD2E)). Details: JMJD2E catalytic domain, FDH-coupled NADH fluorescence (FDH is formaldehyde dehydrogenase); series mostly up to 57.1 µM; activity change, negative = inhibition: at the top concentration.
Sequence of UniProt B2RXH2 (B2RXH2 whole entry, looked up, the tested form may be a part): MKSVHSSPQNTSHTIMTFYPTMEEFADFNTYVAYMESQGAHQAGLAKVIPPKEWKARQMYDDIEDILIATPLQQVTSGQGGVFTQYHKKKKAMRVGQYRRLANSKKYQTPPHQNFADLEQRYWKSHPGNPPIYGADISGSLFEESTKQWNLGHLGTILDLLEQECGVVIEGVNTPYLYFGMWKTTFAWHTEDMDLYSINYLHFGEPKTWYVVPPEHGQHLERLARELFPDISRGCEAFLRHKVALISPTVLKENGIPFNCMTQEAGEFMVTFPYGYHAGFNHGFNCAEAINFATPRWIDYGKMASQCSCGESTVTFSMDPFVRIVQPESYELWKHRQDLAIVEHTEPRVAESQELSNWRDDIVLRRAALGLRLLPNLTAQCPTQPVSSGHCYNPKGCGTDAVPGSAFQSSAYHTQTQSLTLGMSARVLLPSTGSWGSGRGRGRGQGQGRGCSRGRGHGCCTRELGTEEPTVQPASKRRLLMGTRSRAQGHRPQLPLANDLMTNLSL
Also: nearly all actives have a fitted effect of over 50% in size.
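For activity change, negative = inhibition in this document: 0% = wells with enzyme and -100% = buffer wells without enzyme.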
Potency is read from the fitted curve at half-maximal effect; tags tell the direction and shape of the fitted curve.

Row | SMILES | Potency | activity change, negative = inhibition
1 | CCOc1ccc2[nH]cc(C(=O)N3CCN(CC)CC3)c(=O)c2c1 | inconclusive: 25.1 µM [inhibitor, partial curve] | 
2 | CC(/C=N/NC(=O)c1nnn(-c2nonc2N)c1CN(C)C)=C\c1ccco1 | inconclusive: 39.8 µM [inhibitor, single point] | 
3 | CC(=O)Oc1ccc2cc(-c3ccccc3)c(=O)oc2c1 | inconclusive: 25.1 µM [inhibitor, partial curve] | 
4 | COc1ccc(N=C2NC(=O)/C(=C/c3ccco3)S2)cc1 | inconclusive: 25.1 µM [inhibitor, single point] | 
5 | CCN(CC)S(=O)(=O)c1ccc2oc(C(=O)NCC3COc4ccccc4O3)c(C)c2c1 (stereo not drawn) | inconclusive: 39.8 µM [inhibitor, single point] | 
6 | Cn1cnnc1SCC(=O)NCCc1ccc(Cl)cc1Cl |  | inactive: 6.8%
7 | CCCCN(Cc1cc2cccc(C)c2[nH]c1=O)S(C)(=O)=O | inconclusive: 31.6 µM [inhibitor, single point] | 
8 | CCOc1cc(/C=C\[N+](=O)[O-])ccc1OCC(=O)N1CCOCC1 | inconclusive: 25.1 µM [inhibitor, single point] | 
9 | Cc1ccccc1C(=O)Nc1ccc(-c2nc3ccc(C(=O)c4ccccc4)cc3[nH]2)cc1 | inconclusive: 25.1 µM [inhibitor, partial curve] | 
10 | C(=C\c1ccccc1)/CNn1cnnc1 | inconclusive: 3.16 µM [inhibitor, single point] | 
11 | CC(C)(Oc1ccc(Cl)cc1)C(=O)NC1=NN(c2ccccc2)C(=O)C1 |  | inactive: -4.82%
12 | CC(=O)c1cccc(NC(=O)Nc2c(C)nn(C)c2C)c1 | inconclusive: 35.5 µM [inhibitor, single point] | 
13 | CC(/C=C1\SC(=S)N(CC(=O)N2CCN(c3ccccc3)CC2)C1=O)=C\c1ccccc1 |  | inactive: 4.55%
14 | COc1ccccc1N1CCN(c2ncc(C(=O)N3CCN(c4cccc(Cl)c4)CC3)c3ccccc23)CC1 | inconclusive: 7.08 µM [inhibitor, single point] | 
15 | Cc1ccc(-c2nc3ncccc3o2)cc1NC(=O)COc1ccccc1 | inconclusive: 10 µM [inhibitor, partial curve] | 
16 | CCCCNC(=O)Nc1c(C(=O)OC)[nH]c2ccc(C)cc12 | inconclusive: 12.6 µM [inhibitor, partial curve] | 
17 | O=C(/C(=N/N=C/c1ccc(O)c(O)c1)c1ccccc1)c1ccccc1 | inconclusive: 35.5 µM [inhibitor, single point] | 
18 | CCN(CC)CCNC(=O)Cn1nc(-c2ccc(C)cc2)ccc1=O | inconclusive: 31.6 µM [inhibitor, single point] | 
